# In publication PMC4336329 (PLoS ONE, 2015):
# About 14,000 (4.5%) of roughly 310,000 compounds showed an effect of 50% or more. Effects have a minus sign here. The list shows a part of the results.
# Target: human ether-à-go-go-related gene (hERG) potassium channel (human, UniProt Q12809)
# Assay: primary screen, population patch clamp on CHO cells stably expressing hERG
# 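Note: peak tail current of the secondary pulse compared with the same well before compound.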
# Sequence of human ether-à-go-go-related gene (hERG) potassium channel (Q12809 whole entry, looked up): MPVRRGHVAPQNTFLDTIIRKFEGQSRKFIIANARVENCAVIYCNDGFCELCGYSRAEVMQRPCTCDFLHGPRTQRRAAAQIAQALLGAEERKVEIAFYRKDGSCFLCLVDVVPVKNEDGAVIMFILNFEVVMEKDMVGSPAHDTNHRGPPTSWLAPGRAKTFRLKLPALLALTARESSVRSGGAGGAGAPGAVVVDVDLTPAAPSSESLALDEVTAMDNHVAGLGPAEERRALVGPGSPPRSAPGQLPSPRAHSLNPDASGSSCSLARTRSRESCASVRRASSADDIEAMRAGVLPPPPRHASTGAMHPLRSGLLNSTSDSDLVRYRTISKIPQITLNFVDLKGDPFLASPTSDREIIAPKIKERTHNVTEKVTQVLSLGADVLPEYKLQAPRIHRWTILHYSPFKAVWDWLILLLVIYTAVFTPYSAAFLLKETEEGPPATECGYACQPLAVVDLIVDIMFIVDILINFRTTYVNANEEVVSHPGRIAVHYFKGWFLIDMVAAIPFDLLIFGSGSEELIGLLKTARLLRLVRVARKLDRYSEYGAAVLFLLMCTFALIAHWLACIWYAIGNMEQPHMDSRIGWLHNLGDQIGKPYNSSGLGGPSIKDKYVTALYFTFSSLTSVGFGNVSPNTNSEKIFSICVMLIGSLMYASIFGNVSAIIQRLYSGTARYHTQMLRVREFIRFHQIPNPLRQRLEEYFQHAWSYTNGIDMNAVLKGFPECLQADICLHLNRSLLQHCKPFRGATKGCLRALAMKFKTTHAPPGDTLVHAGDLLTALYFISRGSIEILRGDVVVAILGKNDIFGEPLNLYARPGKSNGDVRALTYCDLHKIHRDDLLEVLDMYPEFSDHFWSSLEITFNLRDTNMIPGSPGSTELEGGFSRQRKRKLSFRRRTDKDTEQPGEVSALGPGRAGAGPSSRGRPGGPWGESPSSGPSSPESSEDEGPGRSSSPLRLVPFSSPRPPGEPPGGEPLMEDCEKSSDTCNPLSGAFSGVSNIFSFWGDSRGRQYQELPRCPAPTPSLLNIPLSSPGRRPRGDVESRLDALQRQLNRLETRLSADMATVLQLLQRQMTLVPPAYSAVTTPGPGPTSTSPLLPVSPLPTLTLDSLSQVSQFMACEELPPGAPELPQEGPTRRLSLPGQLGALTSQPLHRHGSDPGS
row,Structure (SMILES),"hERG current change (%, negative = inhibition) at 10uM [%]"
1,O=C(CCCOc1ccc(Cl)cc1Cl)N/N=C\C1CCCCC1,14.4
2,Cc1ccc(-c2cnc(-c3ccccc3C(=O)O)o2)cc1,32.7
3,Cc1nccn1CCCNC(=O)CC1C(=O)NCCN1Cc1ccc(Cl)c(F)c1 (centres unmarked),18.4
4,Cc1ccc(S(=O)(=O)n2ccc(=O)[nH]2)cc1,0.963
5,Cc1ccc(NC(=O)COc2ccc(/C=C3/SC(=Nc4ccccc4)N(Cc4cccnc4)C3=O)cc2)cc1,0.975
6,O=C(COc1ccc(S(=O)(=O)N2CCCC2)cc1Cl)NCc1cccnc1,-55
7,Cc1[nH]c2ccccc2c1C(=O)C(=O)NCCc1ccc(S(N)(=O)=O)cc1,5.07
8,COCCCC1CCN(C(=O)c2cc(COc3cc(C)ccc3C)on2)CC1,-33.3
9,CCN(CC)CC(O)Cn1c(C)c(-c2ccccc2)c2cc([N+](=O)[O-])ccc21.Cl (centres unmarked),-65.3
10,Cc1cccc(C)c1NC(=O)COC(=O)c1nonc1N,9.71
11,COC(=O)c1c(NC(=O)CSc2nnnn2C)sc(C)c1C,-9.25
12,Fc1ccc(Oc2nc(-c3ccccc3)nnc2C(F)(F)F)cc1,5.71
13,O=C(O)CC(C(=O)OC1CCCCC1)N1CCOCC1 (centres unmarked),20.1
14,COc1cc(-c2nc(-c3cccc(C)c3)no2)cc(OC)c1OC,0.668
15,NC(=O)c1cccnc1Oc1ccccc1,-30.8
16,CC(C)(C)c1[nH]nc2c1C(C1C=CCCC1)C(C#N)=C(N)O2 (centres unmarked),-11
17,CC1=C(C(=O)OC(C)(C)C)C(c2ccc3ccccc3c2)NC(=O)N1C (centres unmarked),-5.24
18,COc1ccc(NC(=O)CN(C)C(=O)CCNS(=O)(=O)c2ccc(Br)cc2)cc1,-22.8
19,CCC1S/C(=N/N=C/c2ccco2)N(Cc2ccccc2)C1=O (centres unmarked),-2.1
20,Cc1ccc(-c2n[nH]c(=S)c3ccccc23)cc1S(=O)(=O)NCC1CCCO1 (centres unmarked),3.73
21,Cc1nn2c(c1-c1ccccc1)N=C(c1ccco1)CC2c1ccccc1 (centres unmarked),7.69
22,Cc1ccc(C(=O)N2CCN(C(=O)c3ccc(C)cc3)C2)cc1,-15.6
23,CN(C)CCCN1C(=O)C(O)=C(C(=O)c2cccs2)C1c1cccc([N+](=O)[O-])c1 (centres unmarked),2.8

row,Structure (SMILES),"hERG current change (%, negative = inhibition) at 10uM [%]"
1,C=CCNC(=S)N/N=C/c1cn(-c2ccccc2)nc1-c1ccc(OC)cc1,5.28
2,Cc1ccc(NC(=O)Cc2nnc(SCC(=O)c3ccc(Br)cc3)n2C)cc1,-14.3
3,Br.Cc1ccc(Nc2nc(-c3ccc(S(=O)(=O)N4CCCC4)cc3)cs2)cc1C,1.22
4,COc1cc(/C=C2\SC(=S)N(NC(=O)c3ccccc3O)C2=O)ccc1O,10.8
5,c1cncc(CNc2nc(-c3cccnc3)nc3ccccc23)c1,-25.3
6,COCCn1c(SCc2ccc(C(=O)OC)o2)nc2ccccc2c1=O,-18.7
7,CCCC(=O)Nc1cc(C(=O)O)ccc1S(=O)(=O)c1ccc(Cl)cc1,10.7
8,CCC(C)(C#CCN1CCCCC1)OC(C)=O (centres unmarked),10.7
9,Cn1ccnc1C(=O)c1cc(=O)c2ccccc2o1,8.14
10,CCCC(C)c1nnc(NC(=O)C2CCCO2)s1 (centres unmarked),3.06
11,Cc1nc2ccc(S(=O)(=O)Nc3cccc(-c4nc5cccnc5s4)c3)cc2s1,14.8
12,Cc1ccc(-n2ncc(Cl)c2C(=O)NCc2ccccc2)cc1,12.1
13,Cc1ccc(CNC(=O)CN2C(=O)NC(C)(c3ccc(Cl)cc3)C2=O)cc1 (centres unmarked),-6.93
14,O=C(COC(=O)c1ccc(Cl)c(S(=O)(=O)N2CCCC2)c1)NC1CCCCC1,0.159
15,CN(Cc1ccc(F)cc1)C(=O)COc1ccccc1-c1ccccc1,-1.36
16,O=C(NNC(=O)c1cc2cc(OC(F)(F)F)ccc2[nH]1)c1cccc(C(F)(F)F)c1,9
17,COc1cccc(C(=O)Nc2nnc(Cc3ccc(OC)c(OC)c3)s2)c1,22.3
18,COc1cc(C2Nc3ccc4ncccc4c3C3=C2C(=O)CC(C)(C)C3)cc(OC)c1O (centres unmarked),3.48
19,Cc1cc(N2CCN(c3ccccc3)CC2)nc2ccccc12,3.04
20,Cc1sc2ncnc(NCc3cccnc3)c2c1C,-55
21,CC1(C)CC(=O)C2=C(C1)OC(N)=C(C#N)C2c1cccc(OC(=O)c2ccco2)c1 (centres unmarked),-4.09
22,O=c1[nH]c(CSc2ncccn2)nc2c1cnn2-c1ccccc1,-1.06
23,C/C(N)=C(/C#N)C(=O)CSc1nnnn1-c1ccc(C)cc1C,-13.9

row,Structure (SMILES),"hERG current change (%, negative = inhibition) at 10uM [%]"
1,COc1cccc(NC(=O)NCCc2ccc(Cl)cc2)c1,9.47
2,Cc1ccnc(NC(=O)CCCc2ccccc2)c1,13
3,COc1ccc2c(c1OC)C(=O)OC2C1c2c(cc3c(c2OC)OCO3)CCN1C (centres unmarked),-1.42
4,O=C(Nc1cccc(C(F)(F)F)c1)c1cc(-c2ccc(F)cc2)on1,-2.5
5,Cc1ccc2c(c1)NC(=O)C(CC(=O)NCCCN1CCN(c3cc(C)ccc3C)CC1)O2 (centres unmarked),-61.4
6,CCCn1nc(Oc2nc(NCC)nc(NC(C)C)n2)ccc1=O,1.01
7,CN(C)c1ccc(CNCCC2(O)CCOC(C)(C)C2)cc1 (centres unmarked),-46.5
8,Cc1ccc(CNC(=O)Cn2nnc(C(=O)Nc3ccc(Br)cc3)c2N)cc1,15.8
9,O=C(NS(=O)(=O)Nc1ccccn1)c1c[nH]c2ccccc12,15.4
10,CCC(=O)N(Cc1cc2cc(OC)ccc2[nH]c1=O)c1ccc(C)cc1,0.841
11,COc1cc(NC(=O)CSc2nc(C)cc(C)n2)cc(OC)c1OC,0.515
12,CCOC(=O)c1c(N)sc2c1CCSC2,0.947
13,COc1cc(-c2nnc(-c3ccc(N4CCOCC4)cc3)o2)cc(OC)c1OC,-34
14,COc1ccc(CC(=O)NNC(=O)c2ccc(SCc3cc(F)ccc3F)c([N+](=O)[O-])c2)cc1,-14.2
15,CCOC(=O)c1nc(N)c(=O)n(-c2ccccc2)n1,0.155
16,O=C(O)C1C2C=CC(C2)C1C(=O)NCc1ccccc1F (centres unmarked),11.8
17,Cc1cc(NC(=O)CN2C(=O)NC(CCc3ccccc3)C2=O)no1 (centres unmarked),9.36
18,O=C(CN1CCCCC1)Nc1ccccc1,-1.04
19,COc1ccc(C(=O)CNc2ccccc2Br)cc1,18.8
20,Cc1cc(NC(=O)C(C)Sc2nnc(NCc3ccco3)s2)no1 (centres unmarked),-6.08
21,Cc1nn(-c2ccccc2)c(Cl)c1C(=O)NCC1CCCO1 (centres unmarked),1.75
22,C/C(=N/NC(=O)c1nnn(-c2nonc2N)c1COc1ccccc1)c1ccc(O)cc1,19.4
23,C=CCNC(=S)NCc1ccc(CNC(=S)NCC=C)cc1,19.7

row,Structure (SMILES),"hERG current change (%, negative = inhibition) at 10uM [%]"
1,CCN1CCN(C(=O)C(=O)c2c(C)[nH]c3ccccc23)CC1,-5.06
2,CN(C)c1ccc(C(CNC(=O)c2cccs2)N(C)C)cc1 (centres unmarked),3.33
3,CCCC(=O)NC(NC1CCS(=O)(=O)C1)C(Cl)(Cl)Cl (centres unmarked),4.08
4,Cc1cccc(N(C(=O)c2snc(C(N)=O)c2N)C(C)C(=O)NCC2CCCO2)c1 (centres unmarked),27.3
5,CN(Cc1ccccc1)C(=O)c1nc[nH]c1C(=O)N1CCN(c2ccccc2)CC1,2.41
6,C=CCn1c(Oc2ccccc2F)nc2c1c(=O)n(C)c(=O)n2C,2.59
7,CC(C)c1nnc(NC(=O)CSc2nc3ccccc3s2)s1,-0.703
8,C/C(Cn1nnc([N+](=O)[O-])n1)=N\NC(=O)c1ccncc1,13.7
9,O=C(COC(=O)c1c(Cl)ccc(Cl)c1Cl)NC1CCS(=O)(=O)C1 (centres unmarked),-17.4
10,CCOC(=O)C1CCCN(CC(O)COC(c2ccccc2)c2ccccc2)C1 (centres unmarked),-79.7
11,COC(=O)CSC1=C(C#N)C(c2cccc(F)c2)CC(=O)N1 (centres unmarked),9.97
12,Cc1cnc(C(=O)Nc2nc(-c3ccccc3)cs2)cn1,-5.47
13,CC(=N)C1=C(O)CC(c2ccccc2)CC1=O (centres unmarked),14.8
14,COc1ccc([N+](=O)[O-])cc1N1C(=O)c2cccnc2C1=O,9.49
15,Cl.O=C(c1ccccc1F)N1CCN(Cc2ccccc2F)CC1,12.2
16,Cc1noc(C)c1CSCC(=O)Nc1cc(S(=O)(=O)N2CCOCC2)ccc1OCC(F)(F)F,-33.4
17,CCOC(=O)c1[nH]c(C)c(/C(O)=C2\C(=O)C(=O)N(CCN(C)C)C2c2ccco2)c1C (centres unmarked),10.7
18,Cc1ccc2c(c1)c(C1=NC(=S)NC1=O)c(O)n2C,19.4
19,O=C(NC1(C(F)(F)F)N=C2SCCN2C1=O)c1ccccc1F (centres unmarked),19.8
20,COc1ccc(C)cc1NC(=O)C(OC(=O)C1CC1)c1ccccc1 (centres unmarked),-12
